In all, about 310,000 compounds went through this assay and about 2,200 (0.71%) showed an effect of 50% or more. The effect is printed as a negative number. Some of the results follow.
What follows are compounds tested against human ether-à-go-go-related gene (hERG) potassium channel (human, UniProt Q12809) (assay: primary screen, population patch clamp on CHO cells stably expressing hERG).
Sequence of human ether-à-go-go-related gene (hERG) potassium channel (Q12809 whole entry, looked up): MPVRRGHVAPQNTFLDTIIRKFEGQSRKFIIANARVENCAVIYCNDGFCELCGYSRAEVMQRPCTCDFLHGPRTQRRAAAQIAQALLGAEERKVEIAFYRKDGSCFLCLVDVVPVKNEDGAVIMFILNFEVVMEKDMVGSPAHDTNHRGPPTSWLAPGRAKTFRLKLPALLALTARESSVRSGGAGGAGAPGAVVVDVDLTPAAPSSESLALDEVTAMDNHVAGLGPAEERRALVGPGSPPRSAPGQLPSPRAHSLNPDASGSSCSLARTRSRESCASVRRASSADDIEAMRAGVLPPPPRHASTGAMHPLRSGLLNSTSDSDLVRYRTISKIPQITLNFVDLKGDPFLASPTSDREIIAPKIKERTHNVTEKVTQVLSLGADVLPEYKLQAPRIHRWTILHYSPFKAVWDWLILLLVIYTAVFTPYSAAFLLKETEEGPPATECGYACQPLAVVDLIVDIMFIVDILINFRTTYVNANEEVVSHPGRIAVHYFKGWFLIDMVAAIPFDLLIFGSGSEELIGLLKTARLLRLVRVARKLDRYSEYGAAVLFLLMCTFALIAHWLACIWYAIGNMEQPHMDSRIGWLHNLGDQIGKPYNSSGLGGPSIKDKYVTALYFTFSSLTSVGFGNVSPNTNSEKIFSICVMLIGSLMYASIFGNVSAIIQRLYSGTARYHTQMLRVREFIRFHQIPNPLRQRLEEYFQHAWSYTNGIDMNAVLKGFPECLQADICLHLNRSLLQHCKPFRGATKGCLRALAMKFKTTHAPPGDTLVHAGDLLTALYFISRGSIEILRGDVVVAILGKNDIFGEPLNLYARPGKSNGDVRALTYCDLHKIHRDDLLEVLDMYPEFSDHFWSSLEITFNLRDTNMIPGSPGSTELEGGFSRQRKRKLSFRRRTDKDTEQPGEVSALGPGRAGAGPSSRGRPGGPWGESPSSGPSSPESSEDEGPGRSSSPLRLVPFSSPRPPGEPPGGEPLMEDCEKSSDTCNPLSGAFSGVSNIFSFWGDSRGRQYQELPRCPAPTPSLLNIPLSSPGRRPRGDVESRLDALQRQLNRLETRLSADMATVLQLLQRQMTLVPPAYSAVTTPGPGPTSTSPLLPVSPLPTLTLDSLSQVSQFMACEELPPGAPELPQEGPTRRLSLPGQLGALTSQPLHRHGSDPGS
In the case of `COc1cc(NC(=O)COc2ccc(-n3cnnn3)cc2)c(OC)cc1Cl`, the “hERG current change (%, negative = inhibition) at 1uM” value is reported as -1.21%. In the case of `Cn1c(N2CCOCC2)c(/C=N/O)c2ccccc21`, the “hERG current change (%, negative = inhibition) at 1uM” value is reported as -10.5%. In the case of `COc1cc(C(=O)N(Cc2ccc(C)o2)C2CCS(=O)(=O)C2)cc(OC)c1OC` (stereo not shown), the “hERG current change (%, negative = inhibition) at 1uM” value is reported as 9.59%. For `OCCOCCNc1ncnc2c1c(-c1ccccc1)cn2-c1ccccc1`, the “hERG current change (%, negative = inhibition) at 1uM” value was -10.8%. For `COC(=O)[C@]1(CC(C)C)N[C@H](c2ccc(-c3ccc(OC)cc3)cc2)[C@@H]2C(=O)N(C)C(=O)[C@@H]21.O=C(O)C(F)(F)F`, the “hERG current change (%, negative = inhibition) at 1uM” value was 1.8%. `Cc1ccc(S(=O)(=O)N2CCN(C(=O)COC(=O)/C=C/c3ccccc3F)CC2)c(C)c1` was tested, and the “hERG current change (%, negative = inhibition) at 1uM” value was 19.2%. With `COc1ccc(N(CC(O)CN2CCCCC2)S(=O)(=O)c2ccc(C)cc2)cc1` (stereo not shown) the “hERG current change (%, negative = inhibition) at 1uM” value was -82.9%. For `c1csc(CNc2ncnc3nc[nH]c23)c1`, the “hERG current change (%, negative = inhibition) at 1uM” value was 2.53%. In the case of `COc1ccccc1N1CCN(C(=O)c2ccc(CN3CCOCC3)cc2)CC1`, the “hERG current change (%, negative = inhibition) at 1uM” value is reported as 13.1%. For `CCCCCNC(=O)c1ccc2c(=O)n(CC3CCCO3)c(=S)[nH]c2c1` (stereo not shown), the “hERG current change (%, negative = inhibition) at 1uM” value was 9.19%. With `CCCCCn1c(=O)[nH]c2cc(C(=O)N3CCN(c4ccc(C(C)=O)cc4)CC3)ccc2c1=O` the “hERG current change (%, negative = inhibition) at 1uM” value was -2.5%. In the case of `O=C(NC1CCCC1)C(c1ccccn1)N(C(=O)c1csnn1)C1CCCC1` (stereo not shown), the “hERG current change (%, negative = inhibition) at 1uM” value is reported as 12.1%. With `O=C(NCc1ccco1)C1CCCN(S(=O)(=O)c2cccc3cccnc23)C1` (stereo not shown) the “hERG current change (%, negative = inhibition) at 1uM” value was 9.04%. For `Cc1ccc(S(=O)(=O)N2CCN(c3ccccc3)CC2)cc1C`, the “hERG current change (%, negative = inhibition) at 1uM” value was 12.5%. With `COc1ccccc1C(=O)N1CCN(S(=O)(=O)Cc2ccccc2)CC1` the “hERG current change (%, negative = inhibition) at 1uM” value was 10.1%. `Cc1ccc(CC(=O)Nc2ccc(S(=O)(=O)N3CCOCC3)cc2)cc1C` was tested, and the “hERG current change (%, negative = inhibition) at 1uM” value was 14.5%. With `COCCNc1nc2c(c(=O)n(Cc3ccc(OC)cc3)c(=O)n2C)n1C` the “hERG current change (%, negative = inhibition) at 1uM” value was 5.03%. For `Oc1ccccc1-c1nnc(COc2ccccc2)o1`, the “hERG current change (%, negative = inhibition) at 1uM” value was 6.79%. In the case of `COc1ccc(NC(=O)CCNS(=O)(=O)c2cc(Br)cnc2N)cc1OC`, the “hERG current change (%, negative = inhibition) at 1uM” value is reported as 19.3%. With `O=C(CCn1nnc2ccccc21)OCC(=O)c1ccc([N+](=O)[O-])cc1` the “hERG current change (%, negative = inhibition) at 1uM” value was 8.27%. For `COc1cccc(NCc2nnc(SCC(=O)NC3CCS(=O)(=O)C3)n2C2CCCCC2)c1` (stereo not shown), the “hERG current change (%, negative = inhibition) at 1uM” value was 10.3%. For `Cc1ccc(CN2CCN(Cc3ccc4cc(F)ccc4n3)CC2CCO)o1` (stereo not shown), the “hERG current change (%, negative = inhibition) at 1uM” value was 1.19%. `COc1ccc(C(=O)NCC(=O)OCn2nnc3ccccc3c2=O)cc1OC` was tested, and the “hERG current change (%, negative = inhibition) at 1uM” value was 7.45%. For `Cc1cccc2c1NC(C)CC2C.Cl` (stereo not shown), the “hERG current change (%, negative = inhibition) at 1uM” value was 8.68%. For `CC(=O)NC(=S)NNC(=O)CCc1ccccc1`, the “hERG current change (%, negative = inhibition) at 1uM” value was 6.91%. With `Cc1cccc2cc(COC(=O)c3ccccc3)c(=O)[nH]c12` the “hERG current change (%, negative = inhibition) at 1uM” value was 6.77%. `COc1ccc(NC(=O)N(C2CCCCC2)C(C)c2ccco2)c(OC)c1` (stereo not shown) was tested, and the “hERG current change (%, negative = inhibition) at 1uM” value was 13.4%. In the case of `CCCS(=O)(=O)N1CCc2ccc(NC(=O)c3ccccc3Cl)cc2C1`, the “hERG current change (%, negative = inhibition) at 1uM” value is reported as 12.1%. With `Cc1ccccc1NC(=O)Cc1nc(COC(=O)c2cccc(O)c2)cs1` the “hERG current change (%, negative = inhibition) at 1uM” value was 10.5%. In the case of `O=c1oc(Cl)c(Cl)c2ccccc12`, the “hERG current change (%, negative = inhibition) at 1uM” value is reported as 16.6%. `CCc1c(-c2ccccc2)nc2ccccc2c1C(=O)N1CCC2(CC1)OCCO2` was tested, and the “hERG current change (%, negative = inhibition) at 1uM” value was 6.15%. In the case of `COC(=O)C1CCN(c2cc(Cl)nc(N)n2)CC1`, the “hERG current change (%, negative = inhibition) at 1uM” value is reported as 5.9%. `COC(=O)c1sccc1NS(=O)(=O)c1ccc(F)cc1F` was tested, and the “hERG current change (%, negative = inhibition) at 1uM” value was 5.34%. For `CCc1ccc(Nc2cnn(-c3nc4ccccc4s3)c(=O)c2Cl)cc1`, the “hERG current change (%, negative = inhibition) at 1uM” value was 9.7%. For `CN1C(CC(=O)Nc2ccc(Cl)cc2Cl)c2ccccc2CC1(C)C` (stereo not shown), the “hERG current change (%, negative = inhibition) at 1uM” value was 0.404%. In the case of `S=C(Cc1ccc(Cl)cc1)N1CCOCC1`, the “hERG current change (%, negative = inhibition) at 1uM” value is reported as 7.88%. For `Cn1cc(-c2ccccc2C(N)=O)c(=O)c2cc(Cl)ccc21`, the “hERG current change (%, negative = inhibition) at 1uM” value was 8.57%. `OCCN1CCOCCN(CCO)CCOCC1` was tested, and the “hERG current change (%, negative = inhibition) at 1uM” value was 10.6%. With `COc1ccc(C(=O)NC(CC(C)C)C(=O)O)cc1OC` (stereo not shown) the “hERG current change (%, negative = inhibition) at 1uM” value was 9.19%. For `COc1cccc(NC(=O)c2ccccc2F)c1`, the “hERG current change (%, negative = inhibition) at 1uM” value was -4.2%. With `CC(=O)c1cccc(N=Cc2c(O)ccc3ccccc23)c1` the “hERG current change (%, negative = inhibition) at 1uM” value was 7.4%. For `CCCCOC(=O)CCn1c(=S)oc2ccccc21`, the “hERG current change (%, negative = inhibition) at 1uM” value was -11.5%. In the case of `O=C(NCC(O)CO)c1ccc2[nH]c3ccccc3c2c1` (stereo not shown), the “hERG current change (%, negative = inhibition) at 1uM” value is reported as 15.2%. For `CC(=O)c1cc(C#N)c(N2CC(C)OC(C)C2)nc1C` (stereo not shown), the “hERG current change (%, negative = inhibition) at 1uM” value was 3%. For `Cc1cc(C(=O)CN2C(=O)C(=O)N(CC(C)C)C2=O)c(C)n1C1CC1`, the “hERG current change (%, negative = inhibition) at 1uM” value was -5.82%. With `CN(Cc1ccccc1F)C(=O)CN1c2cccc3cccc(c23)S1(=O)=O` the “hERG current change (%, negative = inhibition) at 1uM” value was 20.9%. For `CCC(C)Nc1nc(N)c([N+](=O)[O-])c(NCc2ccccc2)n1` (stereo not shown), the “hERG current change (%, negative = inhibition) at 1uM” value was 15.3%. In the case of `O=C(c1cc(COc2ccc(F)cc2Cl)on1)N1CCc2sccc2C1`, the “hERG current change (%, negative = inhibition) at 1uM” value is reported as 14.6%. `CC(=O)Nc1ccc(NC(=O)C(C)OC(=O)CNS(=O)(=O)/C=C/c2ccc(C)cc2)cc1` (stereo not shown) was tested, and the “hERG current change (%, negative = inhibition) at 1uM” value was 14.8%. For `O=C(Nc1ccc(S(=O)(=O)NCC2CCCO2)cc1)C1CC(=O)N(c2ccccc2)C1` (stereo not shown), the “hERG current change (%, negative = inhibition) at 1uM” value was 8.52%. With `O=C(CSC1=NS(=O)(=O)c2cc(F)ccc2N1)NCc1ccccc1Cl` the “hERG current change (%, negative = inhibition) at 1uM” value was 10.9%. `CCn1c(SC)nnc1-c1sc2cc(Cl)ccc2c1Cl` was tested, and the “hERG current change (%, negative = inhibition) at 1uM” value was 7.49%. For `CC(C)(C)NC(=O)CSc1nccn1Cc1ccccc1`, the “hERG current change (%, negative = inhibition) at 1uM” value was 5.85%. For `COc1ccc(NC(=O)c2ccc(OCc3c(C)noc3C)c(OC)c2)cn1`, the “hERG current change (%, negative = inhibition) at 1uM” value was 3.06%. In the case of `CC1=C(C(=O)OC(C)(C)C)C(c2cccs2)NC(=O)N1` (stereo not shown), the “hERG current change (%, negative = inhibition) at 1uM” value is reported as -0.783%. With `CN(C)c1ccc(SC#N)cc1` the “hERG current change (%, negative = inhibition) at 1uM” value was 7.06%. In the case of `OCCNc1nc(Nc2ccccc2Cl)nc(N2CCCC2)n1`, the “hERG current change (%, negative = inhibition) at 1uM” value is reported as 9.97%. With `O=C1CSC(c2ccccc2[N+](=O)[O-])N1c1cccc(F)c1` (stereo not shown) the “hERG current change (%, negative = inhibition) at 1uM” value was 6.76%.

— article PMC4336329 (PLoS ONE, 2015)
